# Results from the supplement of paper PMC10126150.
# Sequences with one replicate were seen in a single cluster, so their values are uncertain.
# System: ATP
# Assay: switch fluorescence ratio, 500 uM ATP over buffer (Cy3 cluster intensity, sum of 5 cycles each) (fold (ratio)); higher = stronger signal-on switching upon ATP binding; sequences stand for … in TCGTCGGCAGCGTCAGATGTGTATAAGAGACAGTTTTTTTTTTTTTTTTTTTTTTTTT…TC
# Conditions: aptamer strand: ATP DNA aptamer (quencher-CACCTGGGGGAGTATTGCGGAGGAAGG + anchor), 100 nM annealed; ATP concentration: 500 uM; one replicate
# In short: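 The quencher-labelled ATP aptamer, at 100 nM, was annealed to Cy3-labelled switching-strand clusters on a modified Illumina MiSeq flow-cell. The clusters were imaged in selection buffer, then after 15 min with 500 uM ATP at 22 °C, and this buffer/ATP cycle ran five times with NaOH stripping and re-annealing between runs. Per-cluster fluorescence ratios, summed target-cycle over summed buffer-cycle Cy3 intensity, were averaged per switch-domain sequence. Clusters outside 100-1000 RFU were excluded.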
# 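Also: ATP exposure 15 min at 22 °C before imaging.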
row,Sequence,switch fluorescence ratio
1,TCTGTGTTGC,1.07
2,GAGTCTCGAA,0.975
3,CCACATGTTG,1.02
4,CAAAAGGAAC,0.948
5,ATCTCAAGCA,1.11
6,AATTTAATAA,0.984
7,TTGGAGTTCC,1.01
8,GCAAGGCA,2.01
9,GAGTATGAGC,1.04
10,TCATTACCTT,1.13
11,TACGCTGATA,1.09
12,CCAGAATGTG,1.03
13,CTCGGTGCTT,1.02
14,CGTGTGGTGA,0.994
15,TTGTCGAATT,0.985
16,TCAATATGAG,1.03
17,CGATAACTTT,1.03
18,GTGCGAGGCG,0.979
19,CGGTGCCCGG,0.982
20,TCGAACTTGC,1.11
21,AGCATAAAAT,1.08
22,CGCCAATAGT,2.5
23,ATTTTACACG,1.02
24,ATTATCACA,0.992
25,TTGGATCTTG,0.978

row,Sequence,switch fluorescence ratio
1,ATTGATCAA,0.989
2,TATCGTACGT,0.956
3,TAAGCCGGG,1.01
4,GTATGTAGCT,0.967
5,GCATTCATCG,0.996
6,CACCCGCTAT,5.04
7,ATTAATCATA,0.986
8,CTCACCCTTT,1.24
9,GTGGGCCTTC,1.02
10,AGGCGTAAAC,1.07
11,TATTAATTCA,1.02
12,ACCCTAGAGA,1.02
13,TGCCGGGTCA,0.969
14,GGCACAGTGG,0.988
15,TCGGGGCTAT,0.998
16,GATCGAATCT,1.01
17,TATCTGAGAT,0.993
18,AACGAGAGGT,1.05
19,GAACTTACGC,1.23
20,TAACCGAGTT,1.11
21,GAGGTAAATC,1.03
22,TTGGATACAG,1.02
23,AATCGTCGA,0.95
24,AATGAAGCTA,1.01
25,TGGAATTATT,0.966

row,Sequence,switch fluorescence ratio
1,CACAGAACGT,1.11
2,GCCCCACGAC,1.14
3,AGAAGGAAGT,1.01
4,GGGGGTGCAA,1.03
5,CAATAGGACT,1.01
6,TAGATCGCTC,1.03
7,CTCCAAGCG,1.08
8,TCGAAATTGC,1.15
9,GGCCGGAATG,1.07
10,ACTGCAGGTG,2.47
11,AATACTACGA,1.06
12,GACATCTGGT,0.951
13,TCCAGCTACC,1.34
14,ACGGCATGCT,1.01
15,TGCATTACGC,1.26
16,CGATATATGG,0.986
17,AGGGCCGATG,1.01
18,AGGAATTATT,1.01
19,ATGCGGATCG,0.976
20,GATTGTAAAC,0.997
21,AAGTCACCAC,1.05
22,TCCTAAAACA,0.958
23,TTCGTCCGTG,1.15
24,TAAAGGTGC,1.2
25,GTTAAAGGAA,1.01

row,Sequence,switch fluorescence ratio
1,GCTGCTTTGA,1.02
2,AACCAGGCCA,0.997
3,TGCGGTGGGA,1.01
4,AGTACCCCCA,1.02
5,GGATTGAAC,0.997
6,GTGGGGCTGC,1.02
7,GGAATTAAGT,1.02
8,GATAGCTCGG,0.991
9,ATTGGCTCTT,0.951
10,TATGTTTAAC,1.09
11,GCGAGTAGGT,0.984
12,CTAAGTCAGT,0.986
13,TTTCGAAGAT,1.02
14,CACCGATGTA,1.05
15,TCTAGTAACC,1.06
16,GCTCTCTATG,0.978
17,GCTTGGGTTT,1.01
18,AAAACGGGTC,1.24
19,TCATATCGTG,0.98
20,GATAGAGCGA,1.02
21,TATCCGCTTT,2.33
22,TTGCATCTA,1.05
23,TCGCTTAGCC,1.05
24,TCCCATTATG,0.998
25,CACAGAGTTG,1.02
